Laboratory results taken from article PMC9911399, “Two distinct binding modes provide the RNA-binding protein RbFox with extraordinary sequence specificity”.
Substitutions are numbered along the chain they refer to; changes in the protein carry UniProt numbers. The list shows a part of the results.

T1: RBFOX1 RRM RbFoxmut (Fox-RRM*) (Homo sapiens, UniProt Q9NWB1 109-208, R118D;E147R;N151S;E152T)
T1 sequence: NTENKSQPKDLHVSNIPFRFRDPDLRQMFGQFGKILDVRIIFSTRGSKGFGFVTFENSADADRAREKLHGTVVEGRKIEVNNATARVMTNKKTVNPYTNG

B1: GUAGGAU (DNA:RNA)
RNA: GGGAGACCGGAAUUCAGAUUGUCCGUAGGAUUUAAAUCCCGUCGUAGCCACCA
DNA 1: CAATCTGAATTCCGGTCTCCC
DNA 2: TGGTGGCTACGACGGGATT
B2: UUCUUAU (DNA:RNA)
RNA: B1 RNA with G25U, A27C, G28U, G29U
DNA 1: CAATCTGAATTCCGGTCTCCC
DNA 2: TGGTGGCTACGACGGGATT
B3: CAAGACU (DNA:RNA)
RNA: B1 RNA with G25C, U26A, G29A, A30C
DNA 1: CAATCTGAATTCCGGTCTCCC
DNA 2: TGGTGGCTACGACGGGATT
B4: GCCGACC (DNA:RNA)
RNA: B1 RNA with U26C, A27C, G29A, A30C, U31C
DNA 1: CAATCTGAATTCCGGTCTCCC
DNA 2: TGGTGGCTACGACGGGATT
B5: GCGUGCC (DNA:RNA)
RNA: B1 RNA with U26C, A27G, G28U, A30C, U31C
DNA 1: CAATCTGAATTCCGGTCTCCC
DNA 2: TGGTGGCTACGACGGGATT
B6: GUUCUCA (DNA:RNA)
RNA: B1 RNA with A27U, G28C, G29U, A30C, U31A
DNA 1: CAATCTGAATTCCGGTCTCCC
DNA 2: TGGTGGCTACGACGGGATT
B7: CCUGCCG (DNA:RNA)
RNA: B1 RNA with G25C, U26C, A27U, G29C, A30C, U31G
DNA 1: CAATCTGAATTCCGGTCTCCC
DNA 2: TGGTGGCTACGACGGGATT
B8: AGAGGGG (DNA:RNA)
RNA: B1 RNA with G25A, U26G, A30G, U31G
DNA 1: CAATCTGAATTCCGGTCTCCC
DNA 2: TGGTGGCTACGACGGGATT
B9: UAGCCCU (DNA:RNA)
RNA: B1 RNA with G25U, U26A, A27G, G28C, G29C, A30C
DNA 1: CAATCTGAATTCCGGTCTCCC
DNA 2: TGGTGGCTACGACGGGATT
B10: UCAUGCA (DNA:RNA)
RNA: B1 RNA with G25U, U26C, G28U, A30C, U31A
DNA 1: CAATCTGAATTCCGGTCTCCC
DNA 2: TGGTGGCTACGACGGGATT
B11: CCAUGGU (DNA:RNA)
RNA: B1 RNA with G25C, U26C, G28U, A30G
DNA 1: CAATCTGAATTCCGGTCTCCC
DNA 2: TGGTGGCTACGACGGGATT
B12: AGCUUGG (DNA:RNA)
RNA: GGGAGACCGGAAUUCAGAUUGUCCAGCUUGGUUAAAUCCCGUCGUAGCCACCA
DNA 1: CAATCTGAATTCCGGTCTCCC
DNA 2: TGGTGGCTACGACGGGATT
B13: AUUGAGA (DNA:RNA)
RNA: B12 RNA with G26U, C27U, U28G, U29A, G31A
DNA 1: CAATCTGAATTCCGGTCTCCC
DNA 2: TGGTGGCTACGACGGGATT
B14: CGGUUAA (DNA:RNA)
RNA: B12 RNA with A25C, C27G, G30A, G31A
DNA 1: CAATCTGAATTCCGGTCTCCC
DNA 2: TGGTGGCTACGACGGGATT
B15: ACAGUAU (DNA:RNA)
RNA: B1 RNA with G25A, U26C, G29U
DNA 1: CAATCTGAATTCCGGTCTCCC
DNA 2: TGGTGGCTACGACGGGATT
B16: CGAGGAU (DNA:RNA)
RNA: B1 RNA with G25C, U26G
DNA 1: CAATCTGAATTCCGGTCTCCC
DNA 2: TGGTGGCTACGACGGGATT
B17: ACCGGUA (DNA:RNA)
RNA: B12 RNA with G26C, U28G, U29G, G30U, G31A
DNA 1: CAATCTGAATTCCGGTCTCCC
DNA 2: TGGTGGCTACGACGGGATT
B18: GAUAGAC (DNA:RNA)
RNA: B1 RNA with U26A, A27U, G28A, U31C
DNA 1: CAATCTGAATTCCGGTCTCCC
DNA 2: TGGTGGCTACGACGGGATT
B19: AGGCAAG (DNA:RNA)
RNA: B12 RNA with C27G, U28C, U29A, G30A
DNA 1: CAATCTGAATTCCGGTCTCCC
DNA 2: TGGTGGCTACGACGGGATT
B20: UGCCGCG (DNA:RNA)
RNA: B12 RNA with A25U, U28C, U29G, G30C
DNA 1: CAATCTGAATTCCGGTCTCCC
DNA 2: TGGTGGCTACGACGGGATT
B21: CCUCGCU (DNA:RNA)
RNA: B1 RNA with G25C, U26C, A27U, G28C, A30C
DNA 1: CAATCTGAATTCCGGTCTCCC
DNA 2: TGGTGGCTACGACGGGATT
B22: ACCAAUU (DNA:RNA)
RNA: B12 RNA with G26C, U28A, U29A, G30U, G31U
DNA 1: CAATCTGAATTCCGGTCTCCC
DNA 2: TGGTGGCTACGACGGGATT
B23: GAGUUUG (DNA:RNA)
RNA: B12 RNA with A25G, G26A, C27G, G30U
DNA 1: CAATCTGAATTCCGGTCTCCC
DNA 2: TGGTGGCTACGACGGGATT
B24: UAUGAUC (DNA:RNA)
RNA: B1 RNA with G25U, U26A, A27U, G29A, A30U, U31C
DNA 1: CAATCTGAATTCCGGTCTCCC
DNA 2: TGGTGGCTACGACGGGATT
B25: ACCUUAC (DNA:RNA)
RNA: B12 RNA with G26C, G30A, G31C
DNA 1: CAATCTGAATTCCGGTCTCCC
DNA 2: TGGTGGCTACGACGGGATT
B26: UCCCCUG (DNA:RNA)
RNA: B12 RNA with A25U, G26C, U28C, U29C, G30U
DNA 1: CAATCTGAATTCCGGTCTCCC
DNA 2: TGGTGGCTACGACGGGATT
B27: GCGACUU (DNA:RNA)
RNA: B1 RNA with U26C, A27G, G28A, G29C, A30U
DNA 1: CAATCTGAATTCCGGTCTCCC
DNA 2: TGGTGGCTACGACGGGATT
B28: GACAAUU (DNA:RNA)
RNA: B1 RNA with U26A, A27C, G28A, G29A, A30U
DNA 1: CAATCTGAATTCCGGTCTCCC
DNA 2: TGGTGGCTACGACGGGATT
B29: UCUCGCC (DNA:RNA)
RNA: B1 RNA with G25U, U26C, A27U, G28C, A30C, U31C
DNA 1: CAATCTGAATTCCGGTCTCCC
DNA 2: TGGTGGCTACGACGGGATT
B30: UCUGUUC (DNA:RNA)
RNA: B12 RNA with A25U, G26C, C27U, U28G, G30U, G31C
DNA 1: CAATCTGAATTCCGGTCTCCC
DNA 2: TGGTGGCTACGACGGGATT
B31: CGCAAGU (DNA:RNA)
RNA: B12 RNA with A25C, U28A, U29A, G31U
DNA 1: CAATCTGAATTCCGGTCTCCC
DNA 2: TGGTGGCTACGACGGGATT

biological target: T1, RBFOX1 RRM RbFoxmut (Fox-RRM*); assay: EMSA; HiTS-Eq, 1 nM pool, 10 min; buffer printed only for the single-RNA assays: 10 mM Tris pH 7.5, 150 mM NaCl, 3.4 mM EDTA, 0.001% NP-40, 30 C; details: tags: His6 N-terminal (pET28a); label: 5' 32P
In short: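 A pool of RNA with 7 randomized nucleotides, 5′-radiolabelled and with DNA-annealed flanks, was equilibrated at 1 nM for 10 min in 50 µL with purified RbFox RRM, wild type or mutant, across increasing protein concentrations. Free RNA was separated by 8% native PAGE, excised, reverse-transcribed, barcoded by PCR and sequenced. Relative association constants were obtained from read-count changes of each RNA species versus the control reaction and normalised to the cognate motif.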

Binder | binding signal
B1 | 0.069 KA relative to UGCAUGU
B2 | 0.111 KA relative to UGCAUGU
B3 | 0.0508 KA relative to UGCAUGU
B4 | 0.0677 KA relative to UGCAUGU
B5 | 0.223 KA relative to UGCAUGU
B6 | 0.129 KA relative to UGCAUGU
B7 | 0.0847 KA relative to UGCAUGU
B8 | 0.0899 KA relative to UGCAUGU
B9 | 0.0798 KA relative to UGCAUGU
B10 | 0.197 KA relative to UGCAUGU
B11 | 0.125 KA relative to UGCAUGU
B12 | 0.123 KA relative to UGCAUGU
B13 | 0.0924 KA relative to UGCAUGU
B14 | 0.0724 KA relative to UGCAUGU
B15 | 0.136 KA relative to UGCAUGU
B16 | 0.0964 KA relative to UGCAUGU

Binder | binding signal
B17 | 0.0921 KA relative to UGCAUGU
B18 | 0.0781 KA relative to UGCAUGU
B19 | 0.0822 KA relative to UGCAUGU
B20 | 0.111 KA relative to UGCAUGU
B21 | 0.0969 KA relative to UGCAUGU
B22 | 0.0538 KA relative to UGCAUGU
B23 | 0.361 KA relative to UGCAUGU
B24 | 0.046 KA relative to UGCAUGU
B25 | 0.107 KA relative to UGCAUGU
B26 | 0.0913 KA relative to UGCAUGU
B27 | 0.0621 KA relative to UGCAUGU
B28 | 0.0366 KA relative to UGCAUGU
B29 | 0.146 KA relative to UGCAUGU
B30 | 0.104 KA relative to UGCAUGU
B31 | 0.126 KA relative to UGCAUGU
